# The supplement of paper PMC10126150
# Sequences with one replicate were seen in a single cluster, so their values are uncertain.
# System: ATP
# Assay: switch fluorescence ratio, 500 uM ATP over buffer (Cy3 cluster intensity, sum of 5 cycles each) (fold (ratio)); higher = stronger signal-on switching upon ATP binding; sequences stand for … in TCGTCGGCAGCGTCAGATGTGTATAAGAGACAGTTTTTTTTTTTTTTTTTTTTTTTTT…TC
# Settings: aptamer strand: ATP DNA aptamer (quencher-CACCTGGGGGAGTATTGCGGAGGAAGG + anchor), 100 nM annealed; ATP concentration: 500 uM; one replicate
# Procedure, shortened: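 Per cluster, summed Cy3 intensity from the target cycles was divided by that from the buffer cycles to give the fluorescence ratio, then averaged per switch-domain sequence. Clusters outside 100-1000 RFU were excluded. The Cy3-labelled switching-strand clusters, on a modified Illumina MiSeq flow-cell, were annealed to 100 nM quencher-labelled ATP aptamer and imaged in selection buffer, then after 15 min with 500 uM ATP at 22 °C, for five cycles with NaOH stripping and re-annealing between them.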
# 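Also: ATP exposure 15 min at 22 °C before imaging.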
row,Sequence,switch fluorescence ratio
1,GTTGTCTATA,0.974
2,GTTGTGACGT,0.975
3,GTTGTGGTAG,0.99
4,GTTGTTCCTC,1.08
5,GTTGTTCTTA,0.989
6,GTTGTTGACG,1.04
7,GTTGTTTACT,1.02
8,GTTGTTTGGT,0.944
9,GTTGTTTGTC,1.02
10,GTTTACAC,0.972
11,GTTTACCCAT,1.02
12,GTTTACGTGC,1.05
13,GTTTACTTGT,0.983
14,GTTTAGGTA,1.39
15,GTTTAGTGGC,1.02
16,GTTTATATGG,0.974
17,GTTTATGTCA,0.992
18,GTTTATTTAT,0.994
19,GTTTCAGATT,0.995
20,GTTTCATTTC,0.989
21,GTTTCCAAGT,1.01
22,GTTTCCACGG,1.02
23,GTTTCCCAG,1.02
24,GTTTCGGCGA,0.99
25,GTTTGACGGT,1.04
26,GTTTGAGCTG,0.969

row,Sequence,switch fluorescence ratio
1,GTTTGAGTCC,0.969
2,GTTTGATTGC,0.977
3,GTTTGCCGAA,0.988
4,GTTTGGGGT,1.03
5,GTTTGTAATC,1.02
6,GTTTGTCAAG,0.998
7,GTTTGTGAT,0.984
8,GTTTGTTATT,1.01
9,GTTTTAAGTC,1.01
10,GTTTTACGCT,0.959
11,GTTTTAGACA,0.951
12,GTTTTCCA,0.976
13,GTTTTCCATG,1.96
14,GTTTTGACGG,1.02
15,GTTTTGACTA,0.997
16,GTTTTGAGA,0.976
17,GTTTTGAGAT,1.01
18,GTTTTGCTCG,1
19,GTTTTGGGGC,0.991
20,GTTTTTCGA,0.989
21,GTTTTTGCAG,0.983
22,GTTTTTTTCA,0.97
23,TAAAAAGCGT,0.977
24,TAAAAATCAG,1.03
25,TAAAAATGGG,0.983
26,TAAAACAATG,1.01

row,Sequence,switch fluorescence ratio
1,TAAAACAGGT,1.05
2,TAAAACTACG,1.01
3,TAAAAGAAAG,0.958
4,TAAAAGAGAG,1.06
5,TAAAAGAGTT,1.01
6,TAAAAGTTCT,1.04
7,TAAAATAATA,1
8,TAAAATATGC,0.957
9,TAAACAGCGA,1.03
10,TAAACCATGC,1.16
11,TAAACCGCAT,2.65
12,TAAACTACCG,1.07
13,TAAACTAGTT,0.99
14,TAAACTGTAG,1.02
15,TAAAGAAGCC,1.03
16,TAAAGACA,0.974
17,TAAAGAGGTT,1.26
18,TAAAGCTCTA,1.04
19,TAAAGGGCA,0.984
20,TAAAGGTAAA,0.971
21,TAAAGTCATG,1.01
22,TAAAGTGAAC,1.02
23,TAAATATGAG,1.04
24,TAAATCAATG,1.01
25,TAAATCGCCA,1.04
26,TAAATCTCCG,1.09

row,Sequence,switch fluorescence ratio
1,TAAATCTGTT,1.05
2,TAAATGAAGA,0.973
3,TAAATGAATA,0.978
4,TAAATGAGCT,0.979
5,TAAATGGCGG,0.971
6,TAAATGTATA,1.01
7,TAAATGTCGT,1.02
8,TAAATTAAAA,0.959
9,TAAATTCCAA,0.995
10,TAACAGTATT,1.08
11,TAACATCGC,0.982
12,TAACATGTGA,0.989
13,TAACATTTCG,0.991
14,TAACCCTCAG,1.03
15,TAACCGCCAT,1.38
16,TAACCTTACT,1.09
17,TAACGACGCT,1.84
18,TAACGAGGG,1.02
19,TAACGCATGT,1.01
20,TAACGCCGGC,0.941
21,TAACGCCTGG,1.01
22,TAACGGCTTG,1.01
23,TAACGGGCGC,1.04
24,TAACGGGGAG,0.965
25,TAACGTGCCC,0.957
26,TAACGTTTCG,0.968

row,Sequence,switch fluorescence ratio
1,TAACTAAGCC,0.979
2,TAACTAATCT,0.989
3,TAACTATGCT,1.03
4,TAACTCGATA,0.955
5,TAACTCGGTG,1.04
6,TAACTGCACT,1.43
7,TAACTGCCG,1.09
8,TAACTGGGG,0.97
9,TAACTTCTGT,0.97
10,TAACTTGGTT,1.09
11,TAACTTGTTC,0.996
12,TAACTTTAA,1.02
13,TAAGAAACTC,1.02
14,TAAGACACGG,1.03
15,TAAGACAGCC,1.16
16,TAAGACTGC,1.03
17,TAAGAGACT,0.996
18,TAAGAGCGTG,0.993
19,TAAGAGGCAA,1.21
20,TAAGAGGGA,0.97
21,TAAGAGTAA,0.973
22,TAAGAGTTTC,1.02
23,TAAGATCACG,0.988
24,TAAGCACATC,1.44
25,TAAGCCAGGC,1
26,TAAGCCCCTG,0.99

row,Sequence,switch fluorescence ratio
1,TAAGCGATGG,1.24
2,TAAGCGGT,0.996
3,TAAGCTAGAT,1.01
4,TAAGCTGAGG,1.05
5,TAAGGATTTT,0.965
6,TAAGGGATAA,0.981
7,TAAGGTAACT,0.994
8,TAAGGTAGCC,1.02
9,TAAGGTATCG,0.996
10,TAAGGTCTCC,0.991
11,TAAGTAATCT,0.981
12,TAAGTAGAAC,1.02
13,TAAGTGAATA,0.995
14,TAAGTGATGA,0.986
15,TAAGTGCGTC,1.04
16,TAAGTGGCAG,0.98
17,TAAGTGGGTC,1.03
18,TAAGTGTAT,1.02
19,TAATAAGTTC,0.994
20,TAATACGCGC,1.07
21,TAATAGCGAC,1.06
22,TAATAGCTTA,1.01
23,TAATAGCTTT,0.994
24,TAATAGGAA,0.926
25,TAATAGTCGG,0.994
26,TAATATAATG,1.01

row,Sequence,switch fluorescence ratio
1,TAATATCCAT,1.05
2,TAATCACTGG,1.02
3,TAATCCCCGT,1.26
4,TAATCCGTGC,1.27
5,TAATCCTTG,0.987
6,TAATCGTAAG,1.07
7,TAATCGTTTT,0.965
8,TAATCTATTT,0.98
9,TAATCTGGAG,1.03
10,TAATCTTTCG,1.53
11,TAATGATAAG,0.983
12,TAATGATTCC,1.14
13,TAATGCCGTA,1.04
14,TAATGGCGGT,0.987
15,TAATGTACGT,1
16,TAATGTGTAT,0.935
17,TAATGTTGT,1.02
18,TAATTAAGTA,0.988
19,TAATTACAT,1
20,TAATTATCAG,0.964
21,TAATTATCTA,1.02
22,TAATTCCCTT,1.01
23,TAATTGGCAT,1.01
24,TAATTGTACG,1.01
25,TAATTGTAGC,0.955
26,TAATTGTAGT,1.03

row,Sequence,switch fluorescence ratio
1,TAATTTCAAA,0.975
2,TACAAAGCGG,1.03
3,TACAACAAAC,1.06
4,TACAACCCAG,1.15
5,TACAAGGCGG,1.03
6,TACAAGGGTC,0.957
7,TACAAGGTAT,0.979
8,TACAAGTCCA,1.03
9,TACAATAAGT,1
10,TACAATCATA,0.939
11,TACACAATGT,1.08
12,TACACAGGGG,1.04
13,TACACCACTT,1.3
14,TACACCTCAC,1.31
15,TACACCTCGA,1.02
16,TACACGATTG,1.06
17,TACACGCTTG,1.03
18,TACAGCAAAG,1.15
19,TACAGCCGGA,1.29
